Measurements: patent US20230242615A1 (BEIJING VDJBIO, published 2023)

T1: Interleukin 4 (human, UniProt P05112 25-153)
T1 sequence: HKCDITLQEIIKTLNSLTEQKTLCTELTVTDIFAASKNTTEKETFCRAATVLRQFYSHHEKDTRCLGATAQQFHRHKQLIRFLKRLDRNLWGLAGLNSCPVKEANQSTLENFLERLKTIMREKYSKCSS

B1: IL13Rα2-(GGGGS)2-IL4Rα-(GGGGS)2-hIgG4 Fc S228P (Fc fusion)
chain: DTEIKVNPPQDFEIVDPGYLGYLYLQWQPPLSLDHFKECTVEYELKYRNIGSETWKTIITKNLHYKDGFDLNKGIEAKIHTLLPWQCTNGSEVQSSWAETTYWISPQGIPETKVQDMDCVYYNWQYLLCSWKPGIGVLLDTNYNLFYWYEGLDHALQCVDYIKADGQNIGCRFPYLEASDYKDFYICVNGSSENKPIRSSYFTFQLQNIVKPLPPVYLTFTRESSCEIKLKWSIPLGPIPARCFDYEIEIREDDTTLVTATVENETYTLKTTNETRQLCFVVRSKVNIYCSDDGIWSEWSDKQCWEGEDLSKKTLLRGGGGSGGGGS[here about 200 residues without letters]GGGGSGGGGS[here human IgG4 Fc with S228P (EU numbers) without letters]
notes: also called IL13Rα2-IL4Rα-Fc; IL13Ra2-IL4Rα-Fc
B2: Interleukin 13 (ligand)
chain: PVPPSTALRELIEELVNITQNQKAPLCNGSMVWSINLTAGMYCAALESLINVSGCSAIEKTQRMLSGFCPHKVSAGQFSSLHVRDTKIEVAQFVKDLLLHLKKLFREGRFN
notes: also called IL13; IL-13

Legend:
Interleukin 4 [1] = molecular target: T1, Interleukin 4; experiment: cell-based or functional assay
Interleukin 13 [2] = molecular target: B2; experiment: cell-based or functional assay
Interleukin 4 [3] = molecular target: T1, Interleukin 4; experiment: SPR, BIAcore 3000; fusion polypeptide immobilized on the chip, cytokine in flow, 25 C
Interleukin 13 [4] = molecular target: B2; experiment: as above
IL4Rα-IL13Rα2-Fc = molecular target: T2, IL4Rα-IL13Rα2-Fc (Homo sapiens (Human), UniProt P24394 26-232; Q14627 27-343); experiment: as above
T2 construct: Comparison construct named only by its order of components; not shown: Fc

IL13Rα1-IL4Rα-Fc = molecular target: T3, IL13Rα1-IL4Rα-Fc (Homo sapiens (Human), UniProt P78552 22-343; P24394 26-232); experiment: as above
T3 construct: Comparison construct named only by its order of components; not shown: Fc

IL4Rα-IL13Rα1-Fc = molecular target: T4, IL4Rα-IL13Rα1-Fc (Homo sapiens (Human), UniProt P24394 26-232; P78552 22-343); experiment: as above
T4 construct: Comparison construct named only by its order of components; not shown: Fc

[5] = molecular target: B1; experiment: ELISA, fusion polypeptide coated, IL13 in a gradient mixed with fixed IL4 (1 ng/ml) as competitor, detection with HRP anti-IL13 antibody; signal as a ratio to IL13 without IL4

Interleukin 13, sequence (P35225 other isoform, or with tags, fused parts or gaps limits assumed): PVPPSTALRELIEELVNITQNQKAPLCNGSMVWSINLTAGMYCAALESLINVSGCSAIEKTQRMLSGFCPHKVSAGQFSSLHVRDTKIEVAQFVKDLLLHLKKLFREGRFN

Row | IC50 (nM) Blocking IL4, TF-1 cell proliferation (Interleukin 4 [1]) | Relative activity (blocking IL4, against Dupilumab) (Interleukin 4 [1]) | IC50 (nM) Blocking IL13, TF-1 cell proliferation (Interleukin 13 [2]) | Relative activity (blocking IL13, against Dupilumab) (Interleukin 13 [2]) | Kd (Interleukin 4 [3]) | koff (Interleukin 4 [3]) | kon (Interleukin 4 [3]) | Kd (Interleukin 13 [4]) | koff (Interleukin 13 [4]) | kon (Interleukin 13 [4]) | Kd (IL4Rα-IL13Rα2-Fc) | koff (IL4Rα-IL13Rα2-Fc) | kon (IL4Rα-IL13Rα2-Fc) | Kd (IL13Rα1-IL4Rα-Fc) | koff (IL13Rα1-IL4Rα-Fc) | kon (IL13Rα1-IL4Rα-Fc) | koff (IL4Rα-IL13Rα1-Fc) | kon (IL4Rα-IL13Rα1-Fc) | binding result [5] | Binder
1 | 1.1 nM | 2.8 fold | 1.02 nM | 20.1 fold | 0.0741 nM | 0.0035 s⁻¹ | 4.72e+07 M⁻¹ s⁻¹ | 0.0168 nM | 2.45e-05 s⁻¹ | 1.46e+06 M⁻¹ s⁻¹ |  |  |  |  |  |  |  |  |  | B1
2 |  |  |  |  |  |  |  |  |  |  | 0.0425 nM | 6.03e-05 s⁻¹ | 1.42e+06 M⁻¹ s⁻¹ | 0.565 nM | 7.52e-05 s⁻¹ | 133000 M⁻¹ s⁻¹ | 9.85e-05 s⁻¹ | 101000 M⁻¹ s⁻¹ | binds | B2
